Measured values from PubChem BioAssay AID1671194 (National Center for Advancing Translational Sciences (NCATS), 2021).
Screen size: about 140,000 compounds; about 240 (0.17%) were called active. Inconclusive means that the source gave no clear call. Such entries were picked first, then a sample of the others. Calls come from the whole dose curve; as a rule, active = well fitted inhibition curve with a large enough effect; inconclusive = small, poorly fitted or top-dose-only effect; inactive = no such curve, though single readings can be large or run the other way. Potencies beside an inconclusive call are fits to weak or partial responses and may not hold up.
Potency is the fitted concentration of half-maximal effect; tags give direction and shape of the fitted curve.

Test: Primary qHTS assay for inhibitors of alpha-synuclein gene (SNCA) expression; note: nearly all actives have a fitted effect of over 45% in size;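 for activity change, negative = inhibition: plate controls were DMSO cells for no effect and cell-free wells for full effect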
Conditions: HEK-293 SNCA-luciferase knock-in, luminescence, 24 h; activity change, negative = inhibition: at 57.2 µM (top of the series)
For CC(=O)c1cccc(NC(=O)OC[C@H]2C[C@@H]3CCN2C[C@@H]3c2cc(C3CCCC3)nc(C)n2)c1, the Potency was inconclusive: 39.8 µM [inhibitor, single point]. With Cc1nc(-c2ccccc2)cc([C@H]2CN3CC[C@H]2C[C@@H]3CNC(=O)c2ccco2)n1 the Potency was inconclusive: 17.8 µM [inhibitor, partial curve, poor fit]. With CC(C)(C)c1cc(C=C(C#N)C#N)cc(C(C)(C)C)c1O the Potency was inconclusive: 0.708 µM [inhibitor, full curve, poor fit]. In the case of COc1ccc(NC(=O)OC[C@H]2C[C@@H]3CCN2C[C@@H]3c2cc(-c3ccc(N(C)C)cc3)nc(C)n2)cc1, the Potency is reported as inconclusive: 31.6 µM [inhibitor, partial curve, poor fit]. In the case of CCCCCC(=O)N1C[C@H](C(=O)OCC)[C@H]2c3ccccc3N(CC3CC3)C(=O)[C@]21C, the Potency is reported as inconclusive: 12.6 µM [inhibitor, single point]. For Cc1ncsc1CCC(=O)N1C[C@@H](c2ccccc2)[C@@H]2[C@H]1C1CCN2CC1, the Potency was inconclusive: 1.58 µM [inhibitor, full curve, poor fit]. For CN(C)CC(=O)Nc1ccc2n(c1=O)C[C@H]1C[C@@H]2CN(S(=O)(=O)c2ccccc2)C1, the Potency was inconclusive: 0.891 µM [inhibitor, full curve, poor fit]. In the case of COc1ccc(CN(Cc2ccc(OC)cc2)C[C@H]2C[C@@H]3CCN2C[C@@H]3c2cc(C3CCCC3)nn2C)cc1, the Potency is reported as inconclusive: 39.8 µM [inhibitor, single point]. In the case of Cc1nc(-c2cccs2)cc([C@H]2CN3CC[C@H]2C[C@@H]3COC(=O)Nc2cccc(C(F)(F)F)c2)n1, the Potency is reported as inconclusive: 25.1 µM [inhibitor, partial curve, poor fit]. In the case of COc1cc2c(cc1OC1CCCC1)NC(=O)C21CCN(c2cnccn2)CC1, the Potency is reported as inconclusive: 0.891 µM [inhibitor, full curve, poor fit]. With CCN1CCCCC12Cc1ccccc1CN(C(=O)Cc1ccc(OC)cc1)C2 (stereo not given) the “activity change, negative = inhibition” value was inactive: 2.26%. With CC[C@H]1CN2CC[C@H]1C[C@@H]2CNCc1cc2ccccc2o1 the Potency was inconclusive: 56.2 µM [inhibitor, single point]. In the case of O=C(c1ccc2c(c1)N(Cc1c(F)cccc1Cl)C(=O)c1ccccc1S2)N1CCC2(CC1)OCCO2, the Potency is reported as inconclusive: 25.1 µM [inhibitor, partial curve, poor fit]. For Cc1cccc(CN2C(=O)CN=C(c3ccccc3Cl)c3cc(Cl)ccc32)c1, the Potency was inconclusive: 22.4 µM [inhibitor, single point]. For CCn1c(CO)nnc1C1CC(NC(=O)c2cnn(Cc3ccccc3)c2)C1 (stereo not given), the Potency was inconclusive: 5.01 µM [inhibitor, full curve]. With COc1ccc(C(=O)NC[C@H]2C[C@@H]3CCN2C[C@@H]3c2cc(-c3ccc4ccccc4c3)nn2C)cc1 the Potency was inconclusive: 25.1 µM [inhibitor, single point]. With Cn1nc(-c2ccc(F)cc2)cc1[C@H]1CN2CC[C@H]1C[C@@H]2CNC(=O)c1ccc2c(c1)OCO2 the Potency was inconclusive: 7.08 µM [inhibitor, partial curve]. With O=C1CN=C(c2ccccc2)c2cc(Cl)ccc2N1Cc1ccc(Cl)cc1 the Potency was inconclusive: 28.2 µM [inhibitor, partial curve, poor fit]. For COc1cc2c(cc1Oc1ccccc1)NC(=O)C21CCN(c2nc(C)cc(C)n2)CC1, the Potency was inconclusive: 56.2 µM [inhibitor, single point]. For O=C1[C@H]2CNC[C@H]2C(=O)N1CCc1ccccc1, the Potency was inconclusive: 1.78 µM [inhibitor, partial curve, poor fit]. In the case of C#C[C@H]1CN2CC[C@H]1C[C@@H]2CNC(=O)Nc1cccc(C(F)(F)F)c1, the “activity change, negative = inhibition” value is reported as inactive: 3.85% [at 87.6 µM]. With C[C@@]12OC(=O)[C@]1([C@@H](O)[C@@H]1C=CCCC1)NC(=O)[C@H]2CCCl the Potency was active: 0.136 µM. For CN(C)C(=O)[C@H]1CN2CCC1C[C@@H]2Cn1cc(-c2ccc(-c3ccccc3)cc2)nn1 (stereo not given in full), the Potency was inconclusive: 12.6 µM [inhibitor, single point]. For O=C(N[C@@H](COc1ccc2[nH]c(=O)[nH]c2c1)c1ccccc1)c1cccn(Cc2ccc(F)c(F)c2)c1=O, the Potency was inconclusive: 7.64 µM [inhibitor, full curve, poor fit]. In the case of Oc1ccc2[nH]cc(CCCCN3CC=C(c4ccccc4)CC3)c2c1, the “activity change, negative = inhibition” value is reported as inactive: -49.2% [at 25.6 µM]. In the case of C[C@@H]1[C@@H](CC(C[C@H]2O[C@@H]3O[C@]4(C)CC[C@@H]5[C@H](C)CC[C@@H]([C@H]2C)[C@@]35OO4)C[S+](=O)([O-])c2ccc(COC(=O)N(C)C)cc2)O[C@@H]2O[C@]3(C)CC[C@H]4[C@H](C)CC[C@@H]1[C@@]24OO3 (stereo not given in full), the Potency is reported as inconclusive: 0.541 µM [inhibitor, full curve, poor fit]. For Cc1oc(-c2ccc(Cl)cc2)nc1CN1C(=O)CN=C(c2ccccc2)c2cc(Cl)ccc21, the Potency was inconclusive: 0.178 µM [inhibitor, full curve, poor fit]. For c1cc(CC2CN3CCCC3CN2)cs1 (stereo not given), the “activity change, negative = inhibition” value was inactive: 29% [at 87.6 µM]. In the case of Cc1nc(-c2ccc(N(C)C)cc2)cc([C@H]2CN3CC[C@H]2C[C@@H]3COC(=O)Nc2ccc(C(C)C)cc2)n1, the Potency is reported as inconclusive: 39.8 µM [inhibitor, single point]. With O=C(c1ccc(F)cc1)N1C[C@@H]2C[C@H](C1)c1c(/C=C/c3ccc(Cl)cc3)ccc(=O)n1C2 the “activity change, negative = inhibition” value was inactive: -10.6%. In the case of COc1cc2c(cc1OCC1CCCC1)N([S+](=O)([O-])c1ccc(Oc3ccccc3)cc1)CC21CCN(CC(=O)O)CC1, the “activity change, negative = inhibition” value is reported as inactive: 3.09%. In the case of O=C(O)C1=NOC2CN(CC3CCCCC3)CC12 (stereo not given), the Potency is reported as inconclusive: 25.1 µM [inhibitor, single point]. In the case of Cc1ncc2c(c1CNCC1(O)CNCCOC1)CCNC2 (stereo not given), the Potency is reported as inconclusive: 39.8 µM [inhibitor, single point]. With CC(C)NC(=O)N1C[C@@H]2C[C@H](C1)c1ccc(-c3cccc(C(F)(F)F)c3)c(=O)n1C2 the Potency was inconclusive: 5.62 µM [inhibitor, single point]. In the case of CCOC(=O)[C@H]1CN(C(=O)c2cc3ccccc3s2)[C@]2(C)C(=O)N(CC3CC3)c3ccccc3[C@H]12, the Potency is reported as inconclusive: 5.62 µM [inhibitor, partial curve, poor fit]. With COc1cc2c(cc1OCC1CC1)NC(=O)C21CCN(Cc2nccs2)CC1 the “activity change, negative = inhibition” value was inactive: -20.1% [at 87.6 µM]. In the case of COCCNC(=O)[C@H]1CN2CC[C@H]1C[C@@H]2Cn1cc(C2(O)CCCC2)nn1, the “activity change, negative = inhibition” value is reported as inactive: -20.1% [at 87.6 µM]. For O=C(Nc1ccc2c(c1)OCCO2)c1cccn(Cc2cccc([N+](=O)[O-])c2)c1=O, the “activity change, negative = inhibition” value was inactive: 7.94%. For COc1ccc(-c2cc([C@H]3CN4CC[C@H]3C[C@@H]4CNS(=O)(=O)c3cccs3)n(C)n2)cc1OC, the “activity change, negative = inhibition” value was inactive: 1.72%. For COc1cc2c(cc1CCc1ccccc1)N(C(=O)C(C)C)CC21CCN(C(C)=O)CC1, the Potency was inconclusive: 28.2 µM [inhibitor, partial curve, poor fit]. In the case of COc1cc2c(cc1OCc1ccccc1)N([S+](=O)([O-])c1ccccc1C(F)(F)F)CC21CCN(C)CC1, the Potency is reported as inconclusive: 25.1 µM [inhibitor, single point]. For COc1ccc(N(C(=O)Oc2c(C)cccc2C)c2ccnc(Nc3ccc(N4CCN(C)CC4)cc3)n2)c(OC)c1, the “activity change, negative = inhibition” value was inactive: 9.09%. With Cc1ccc(-c2ccccc2CN2CCN(C(=O)Cc3ccccn3)CC2)cc1Cl the Potency was inconclusive: 0.631 µM [inhibitor, single point]. With Cc1nc(-c2cccs2)cc([C@H]2CN3CC[C@H]2C[C@@H]3CNC(=O)c2ccc3c(c2)OCO3)n1 the “activity change, negative = inhibition” value was inactive: -14.5%. For CC(C)NC(=O)OC[C@H]1C[C@@H]2CCN1C[C@@H]2c1cc(C2CCCC2)nc(-c2ccncc2)n1, the Potency was inconclusive: 12.6 µM [inhibitor, partial curve]. For O=C(c1ccc2c(c1)N(Cc1ccc(F)cc1Cl)C(=O)c1ccccc1S2)N1CCC2(CC1)OCCO2, the Potency was inconclusive: 17.8 µM [inhibitor, partial curve, poor fit]. With CCOC(=O)[C@H]1CN(C(=O)OCc2ccccc2)[C@]2(C)C(=O)Nc3ccccc3[C@H]12 the “activity change, negative = inhibition” value was inactive: 18.5% [at 25.6 µM]. In the case of O=C1Nc2ccccc2CC12CCN(Cc1ccccn1)C2 (stereo not given), the “activity change, negative = inhibition” value is reported as inactive: 6.95% [at 87.6 µM]. For Cc1nc(-c2ccccc2)cc([C@H]2CN3CC[C@H]2C[C@@H]3CNC2CCN(C)CC2)n1, the Potency was inconclusive: 6.31 µM [inhibitor, partial curve, poor fit]. With NC(=O)c1cc(N2CC2)c([N+](=O)[O-])cc1[N+](=O)[O-] the Potency was inconclusive: 3.98 µM [inhibitor, full curve]. In the case of O=C1Nc2ccccc2C12CCN(Cc1ccc(C(F)(F)F)cc1)CC2, the Potency is reported as inconclusive: 10 µM [inhibitor, partial curve, poor fit]. For COc1ccc2c(c1)C1(CCN(C(=O)c3cccc(F)c3)C1)C(=O)N2C (stereo not given), the Potency was inconclusive: 2.24 µM [inhibitor, full curve, poor fit]. In the case of CC[C@H]1C=CC=CC[C@@H](C)[C@H](O)[C@@](C)(O)C(=O)[C@@H](C)[C@H](O)[C@@H](C)C(=O)[C@@H](C)[C@H](O)[C@@H](C)C=CC(=O)O[C@@H]2[C@@H](C)[C@H](CC1)O[C@]1(CC[C@H](C)[C@H](C[C@@H](C)O)O1)[C@H]2C, the Potency is reported as active: 1.71 µM. In the case of COc1ccc(C(CN)N2CCCC2)cc1 (stereo not given), the Potency is reported as inconclusive: 15.8 µM [inhibitor, partial curve, poor fit]. For C[C@@H]1O[C@@H](O[C@@H]2C=C3CC[C@@H]4[C@@H](CC[C@]5(C)[C@H](c6ccc(=O)oc6)CC[C@@]45O)[C@@]3(C)CC2)[C@H](O)[C@H](O)[C@H]1O, the Potency was inconclusive: 0.607 µM [inhibitor, full curve, poor fit].
